# Measurements from ChEMBL document CHEMBL5606460, “ASAP - DENV-2 NS2B-NS3 protease fluorescence single point” (2024).
# Among all 2,000 compounds or so, about 110 (5.5%) showed an effect of 50% or more. Some of the results follow.
# Molecular target: Genome polyprotein (dengue virus type 2) (UniProt P29990)
# [1] = Thailand/16681/1984, Concentration 25.0 uM, Number of replicates 1.0
structure (smiles),measurement,setting,value
COc1ccc(CNC(=O)C2CCN(c3ccc(C=O)cc3)CC2)cc1F,inhibition,[1],12.5%
CC(C)CC(=O)N1CCC(NC(=O)C2CCN(c3ccc(C=O)cc3)CC2)CC1,inhibition,[1],14.2%
CNC(=O)c1cc(Cl)ccc1NS(=O)(=O)c1cccnc1,inhibition,"Thailand/16681/1984, Concentration 49.5 uM, Number of replicates 2.0, Standard deviation 0.5015651989560136 %",-2.47%
same,inhibition,"Thailand/16681/1984, Concentration 99.01 uM, Number of replicates 2.0, Standard deviation 1.4946832336826412 %",-1.48%
same,inhibition,"Thailand/16681/1984, Concentration 198.0 uM, Number of replicates 2.0, Standard deviation 0.31848435191486724 %",0.141%
O=Cc1ccc(N2CCC(C(=O)N(Cc3ccco3)Cc3cccs3)CC2)cc1,inhibition,[1],11%
Cc1cc(CO)c2cccc(Cc3ccccc3C(=O)NCc3ccc(C(N)=O)cc3)c2n1,inhibition,"Thailand/16681/1984, Concentration 49.95 uM, Number of replicates 2.0, Standard deviation 0.2888981019288338 %",2.07%
same,inhibition,"Thailand/16681/1984, Concentration 99.9 uM, Number of replicates 2.0, Standard deviation 0.18972386998439544 %",5.84%
CNC(=O)C1CCC(Nc2nc(Cl)cc3c(F)cccc23)CC1 (configuration not stated),inhibition,"Thailand/16681/1984, Concentration 49.95 uM, Number of replicates 2.0, Standard deviation 5.365912193998162 %",-9.93%
Cc1cc(CO)c2cccc(NC(=O)NCc3ccc(N)cc3)c2n1,inhibition,"Thailand/16681/1984, Concentration 49.95 uM, Number of replicates 2.0, Standard deviation 1.081774899946809 %",4.55%
same,inhibition,"Thailand/16681/1984, Concentration 99.9 uM, Number of replicates 2.0, Standard deviation 2.6483447678271466 %",14.1%
CN(C)CC(=O)NC1(C)CCN(C(=O)c2ccc3[nH]ncc3c2)CC1,inhibition,"Thailand/16681/1984, Concentration 49.5 uM, Number of replicates 2.0, Standard deviation 0.040508516215578556 %",-4.26%
same,inhibition,"Thailand/16681/1984, Concentration 99.01 uM, Number of replicates 2.0, Standard deviation 0.04956975147063269 %",-4.6%
same,inhibition,"Thailand/16681/1984, Concentration 198.0 uM, Number of replicates 2.0, Standard deviation 0.28569224404370114 %",-4.56%
N#Cc1ccc(NC(=O)C2CCN(c3ccc(C=O)cc3)CC2)cc1Br,inhibition,[1],12.7%
NCc1cccc(NC(=O)[C@@H](NC(=O)OCc2ccccc2)c2ccc(F)c(F)c2)c1,inhibition,"Thailand/16681/1984, Concentration 49.5 uM, Number of replicates 2.0, Standard deviation 1.4013065114851189 %",-6.54%
same,inhibition,"Thailand/16681/1984, Concentration 99.01 uM, Number of replicates 2.0, Standard deviation 2.1722806038563465 %",-6.15%
same,inhibition,"Thailand/16681/1984, Concentration 198.0 uM, Number of replicates 2.0, Standard deviation 2.359590386651735 %",-2.47%
CCn1ncc(N)c1-c1nn(C)cc1NC(=O)c1ccccc1C(F)(F)F,inhibition,"Thailand/16681/1984, Concentration 49.5 uM, Number of replicates 2.0, Standard deviation 3.463157820383284 %",-3.42%
same,inhibition,"Thailand/16681/1984, Concentration 99.01 uM, Number of replicates 2.0, Standard deviation 3.448439719414795 %",-2.92%
same,inhibition,"Thailand/16681/1984, Concentration 198.0 uM, Number of replicates 2.0, Standard deviation 4.48360939292153 %",-0.859%
Cc1cc(CO)c2cccc(C[C@H](NC(=O)[C@@H](N)c3ccsc3)C(=O)O)c2n1,inhibition,"Thailand/16681/1984, Concentration 49.95 uM, Number of replicates 2.0, Standard deviation 1.7977802295531586 %",8.31%
same,inhibition,"Thailand/16681/1984, Concentration 99.9 uM, Number of replicates 2.0, Standard deviation 1.1856845832025373 %",20.1%
CCCCN(CCCC)CCCNC(=O)C1CCN(c2ccc(C=O)cc2)CC1,inhibition,[1],15.7%
Cc1cc(CO)c2cccc(Cc3cccc(NC(=O)Cc4cccc(CN)c4)c3)c2n1,inhibition,"Thailand/16681/1984, Concentration 49.95 uM, Number of replicates 2.0, Standard deviation 1.5571170041089204 %",9.22%
same,inhibition,"Thailand/16681/1984, Concentration 99.9 uM, Number of replicates 2.0, Standard deviation 3.140543082582705 %",20.8%
CCCCCC(=O)N[C@H](C(=O)N1CCCCC1)c1ccc(OCc2ccccc2)cc1,inhibition,"Thailand/16681/1984, Concentration 49.5 uM, Number of replicates 2.0, Standard deviation 0.2378185107331052 %",-0.107%
same,inhibition,"Thailand/16681/1984, Concentration 99.01 uM, Number of replicates 2.0, Standard deviation 0.1909965362220304 %",-1.31%
same,inhibition,"Thailand/16681/1984, Concentration 198.0 uM, Number of replicates 2.0, Standard deviation 1.389360893431949 %",1.05%
CC(C)C(=O)N1CCN(C(=O)C2CCN(c3ccc(C=O)cc3)CC2)CC1,inhibition,[1],11.7%
c1ccc(-n2cc(CN3CCC(c4c[nH]c5cccnc45)CC3)nn2)cc1,inhibition,"Thailand/16681/1984, Concentration 49.5 uM, Number of replicates 2.0, Standard deviation 4.560638827721375 %",-4.07%
same,inhibition,"Thailand/16681/1984, Concentration 99.01 uM, Number of replicates 2.0, Standard deviation 3.740439913687727 %",-4.92%
same,inhibition,"Thailand/16681/1984, Concentration 198.0 uM, Number of replicates 2.0, Standard deviation 3.303170912246841 %",-4.28%
CNC(=O)c1cc(Cl)ccc1NS(=O)(=O)c1ccncc1,inhibition,"Thailand/16681/1984, Concentration 49.5 uM, Number of replicates 2.0, Standard deviation 1.2269842800583624 %",-3.48%
same,inhibition,"Thailand/16681/1984, Concentration 99.01 uM, Number of replicates 2.0, Standard deviation 0.8853112431233394 %",-3.3%
same,inhibition,"Thailand/16681/1984, Concentration 198.0 uM, Number of replicates 2.0, Standard deviation 0.4264789024599154 %",-4.04%
Cn1c(C(=O)Nc2cc(Cl)cc(C(=O)NC(C)(C)CO)c2)cccc1=O,inhibition,"Thailand/16681/1984, Concentration 49.5 uM, Number of replicates 2.0, Standard deviation 0.4081268580659683 %",-0.99%
same,inhibition,"Thailand/16681/1984, Concentration 99.01 uM, Number of replicates 2.0, Standard deviation 2.113430221710736 %",-1.01%
same,inhibition,"Thailand/16681/1984, Concentration 198.0 uM, Number of replicates 2.0, Standard deviation 2.072570516879941 %",0.352%
CN(CCCCc1ccccc1)C(=O)C1CCN(c2ccc(C=O)cc2)CC1,inhibition,[1],13%
Cc1cc(CO)c2cccc(Cc3ccccc3NC(=O)Cc3c[nH]c4ccccc34)c2n1,inhibition,"Thailand/16681/1984, Concentration 49.95 uM, Number of replicates 2.0, Standard deviation 1.1797806526631314 %",5.6%
same,inhibition,"Thailand/16681/1984, Concentration 99.9 uM, Number of replicates 2.0, Standard deviation 0.9471475819719768 %",13.1%
